# Assay results as given in PubChem BioAssay AID411 (National Center for Advancing Translational Sciences (NCATS), 2006).
# Among all 72,000 compounds or so, about 1,600 (2.2%) were called active. The shares of active, inactive and inconclusive entries below differ from those in the screen. The call rests on the fitted dose curve; in most records, active means well fitted inhibition curve with a large enough effect; inconclusive means small, poorly fitted or top-dose-only effect; inactive means flat fitted curve, though single readings scatter. Potencies of inconclusive entries are left out as doubtful fits.
# Molecular target: Luciferin 4-monooxygenase (Photinus pyralis) (UniProt P08659)
# Test: qHTS Assay for Inhibitors of Firefly Luciferase; further: nearly all actives have a fitted effect of over 40% in size
# Conditions: purified firefly luciferase, luminescence, 8 min; series mostly up to 57.1 µM
# Outline: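 Luminescence read-out after 8 min at room temperature; enzyme reaction used luciferin plus 10 uM ATP (linear range) in imidazole buffer pH 7.2 with KCl, MgCl2, Tween 20 and BSA. Each sample was run as a titration.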
# On the % scale 0 is the no-effect control and ±100 the full control effect; potency means the concentration at half of the fitted maximal effect; tags describe the fitted curve by direction and shape.
# Sequence of UniProt P08659 (P08659 whole entry, looked up): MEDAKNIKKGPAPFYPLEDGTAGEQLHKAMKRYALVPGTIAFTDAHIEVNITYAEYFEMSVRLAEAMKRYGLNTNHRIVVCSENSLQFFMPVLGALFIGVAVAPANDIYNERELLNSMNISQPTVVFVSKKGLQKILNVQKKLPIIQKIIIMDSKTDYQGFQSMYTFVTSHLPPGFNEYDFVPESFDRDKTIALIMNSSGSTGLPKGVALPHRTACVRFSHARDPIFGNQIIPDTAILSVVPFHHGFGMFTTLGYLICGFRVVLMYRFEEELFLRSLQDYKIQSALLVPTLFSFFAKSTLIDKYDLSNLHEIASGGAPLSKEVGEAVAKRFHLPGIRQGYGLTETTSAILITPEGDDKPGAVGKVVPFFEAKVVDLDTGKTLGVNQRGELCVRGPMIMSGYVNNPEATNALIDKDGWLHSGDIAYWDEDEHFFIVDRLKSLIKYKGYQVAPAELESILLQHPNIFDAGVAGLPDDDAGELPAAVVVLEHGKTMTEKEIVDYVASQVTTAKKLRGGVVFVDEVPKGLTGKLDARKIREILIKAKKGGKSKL
SMILES,Potency,"activity change, negative = inhibition"
COc1ccc(OCCCSc2ncccn2)cc1,"inconclusive [inhibitor, partial curve]",
COc1ccc(NC(=O)c2cccs2)cc1O,"inconclusive [inhibitor, single point]",
O=C(Nc1cccc(F)c1)N1CC[C@@]2(CCCN(C(=O)c3cccc(F)c3)C2)C1,,inactive: 1.8% [at 11.4 µM]
COCCn1c(C)cc(C(=O)COC(=O)c2c(C)nn(Cc3ccccc3)c2C)c1C,inactive,
Cc1nc2cnc(Oc3ccccc3)nc2n(C2CC2)c1=O,,inactive: -0.371% [at 11.4 µM]
C=CCNc1ncnc2c1cnn2-c1ccc(Cl)cc1,active: 2.51 µM,
CCOC(=O)N1CCC(NC(=O)c2cccc3c2C(=O)N(Cc2cccnc2)C3)CC1,inactive,
COCCNc1ncncc1-c1ccccc1OC,,inactive: 1.89% [at 2.29 µM]
CCN(CC)S(=O)(=O)c1cccc(-c2nnc(SC(C)C#N)n2Cc2ccccc2)c1 (stereo not given),inactive,
O=C(c1ccncc1)N1CCC[C@@]2(CCN(C(c3ccccc3)c3ccccc3)C2)C1,,inactive: -0.829% [at 11.4 µM]
CN(C)/C=N/c1cnc(C(=O)c2ccc(Cl)cc2)n1C,active: 12.6 µM,
O=C(OCc1nc2ccccc2s1)c1cnccn1,"inconclusive [inhibitor, single point]",
COc1cc(OC)cc(C(=O)N(Cc2nc(-c3cccc(C)c3)no2)C(C)C)c1,inactive,
S=C(c1ccc(N2CCOCC2)cc1)N1CCOCC1,inactive,
CC(C)c1ccc(-c2nnn(CCC(=O)O)n2)cc1,"inconclusive [inhibitor, partial curve]",
CC(=O)c1sc(NC(=O)C2COc3ccccc3O2)nc1C (stereo not given),"inconclusive [inhibitor, partial curve]",
CCCCC(=O)Nc1ccc(Cl)cn1,inactive,
Oc1cc(NCc2cccnc2)ccc1-c1nc2ccccc2o1,"inconclusive [inhibitor, partial curve]",
c1ccc(C(Cc2nc(-c3ccncc3)no2)c2ccccc2)cc1,inactive,
COc1ccccc1NC(=O)Nc1ccc2c(c1)OCCO2,active: 12.6 µM,
CC(C)Cc1cc(C(=O)Nc2ccc(F)cc2F)no1,"inconclusive [inhibitor, partial curve]",
COc1ccc(OCc2cccc(C(=O)N3CCCC3)c2)cc1,active: 25.1 µM,
COc1ccc2nc(N3CCCCC3)c(C#N)cc2c1,active: 25.1 µM,
Oc1ccc(Nc2nc(NCC3CCCO3)c3ccccc3n2)cc1 (stereo not given),inactive,
Nc1ccc(N=Nc2ccccc2)c(N)n1,"inconclusive [inhibitor, partial curve]",

SMILES,Potency,"activity change, negative = inhibition"
O=C(CSc1nc2sc3c(c2c(=O)n1Cc1ccco1)CCC3)N1CCc2ccccc21,inactive,
O=C(Nc1ccc2c(c1)OCO2)c1cccc(F)c1,"inconclusive [inhibitor, single point]",
CCc1nnc(NC(=O)CSc2nc3c(cc2C#N)CCCC3)s1,"inconclusive [inhibitor, full curve, poor fit]",
Cc1cc(C)nc(Nc2n[nH]c(-c3ccccc3Br)n2)n1,"inconclusive [inhibitor, partial curve]",
c1ccc(-c2cnnc(N3CCCCC3)n2)cc1,"inconclusive [inhibitor, partial curve]",
COCC(=O)Nc1nc2ccc(C)cc2s1,active: 20 µM,
c1ccc2sc(-c3ccc4c(c3)OCO4)nc2c1,active: 1.58 µM,
O=C(Nc1ccccc1)N1CC2(CCN(C(=O)c3ccco3)CC2)C1,,inactive: 0.543% [at 11.4 µM]
O=C(Nc1ccc(N2CCCCC2)cc1)c1cncc(Br)c1,"inconclusive [inhibitor, partial curve]",
Cc1ccccc1C(=O)Nc1ccc2c(c1)OCO2,active: 15.8 µM,
CCOc1ccc(-c2nc(CSCC(=O)N3CCN(c4cccc(OC)c4)CC3)c(C)o2)cc1,"inconclusive [inhibitor, partial curve]",
C=CCn1c(C)cc(C(=O)COc2nncc3ccccc23)c1C,"inconclusive [inhibitor, single point]",
CCCCC(=O)Nc1ccc(NC(=O)c2ccc3c(c2)OCO3)cc1OC,"inconclusive [inhibitor, single point]",
CCOC(=O)c1oc2ccccc2c1CN1CCOCC1,inactive,
c1ccc(CNc2ccc3c(c2)ncn3C2CCCCC2)nc1,"inconclusive [inhibitor, single point]",
COC(=O)C1C(=O)c2c([nH]c(C(=O)OC3CCCCCC3)c2C)CC1C (stereo not given),"inconclusive [inhibitor, partial curve]",
N#Cc1ccc(CN2CCCC3(CCN(C(=O)c4cccc(F)c4)CC3)C2)cc1,,inactive: -0.335% [at 11.4 µM]
Cc1ccc2c(c1)CCCN2C(=O)Nc1ccc2c(c1)OCO2,"inconclusive [inhibitor, single point]",
CC(=O)C(C(C)=O)c1c(Cl)c(O)c(O)c2c(C(=O)c3ccccc3)coc12,"inconclusive [inhibitor, partial curve]",
COC(=O)c1sc(NC(=O)CSc2nnc(C(C)C)n2C)nc1C,"inconclusive [inhibitor, single point]",
Cc1ccc(C(=O)COC(=O)c2cnccn2)cc1,"inconclusive [inhibitor, single point]",
COc1ccc(S(=O)(=O)N2CCSC2c2ccc(OC)c(OC)c2)cc1 (stereo not given),"inconclusive [inhibitor, full curve]",
CC(C)NC(=O)N1CCC2(CC1)CCN(S(=O)(=O)c1ccccc1)CC2,,inactive: 0.988% [at 11.4 µM]
Cc1ccc(-c2cc(C(=O)NCc3cccnc3)no2)cc1,"inconclusive [inhibitor, partial curve]",
CCC(=O)Nc1cccc(-c2cn3ccsc3n2)c1,"inconclusive [inhibitor, single point]",
